Article PMC4336329 (PLoS ONE, 2015)
Hit rate of the full screen: of about 310,000 compounds, about 14,000 (4.5%) showed an effect of 50% or more. The effect is printed as a negative number. This is one part of the list.

target: human ether-à-go-go-related gene (hERG) potassium channel (human, UniProt Q12809); assay: primary screen, population patch clamp on CHO cells stably expressing hERG
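Further: peak tail current of the secondary pulse compared with the same well before compound.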

Sequence of human ether-à-go-go-related gene (hERG) potassium channel (Q12809 whole entry, looked up): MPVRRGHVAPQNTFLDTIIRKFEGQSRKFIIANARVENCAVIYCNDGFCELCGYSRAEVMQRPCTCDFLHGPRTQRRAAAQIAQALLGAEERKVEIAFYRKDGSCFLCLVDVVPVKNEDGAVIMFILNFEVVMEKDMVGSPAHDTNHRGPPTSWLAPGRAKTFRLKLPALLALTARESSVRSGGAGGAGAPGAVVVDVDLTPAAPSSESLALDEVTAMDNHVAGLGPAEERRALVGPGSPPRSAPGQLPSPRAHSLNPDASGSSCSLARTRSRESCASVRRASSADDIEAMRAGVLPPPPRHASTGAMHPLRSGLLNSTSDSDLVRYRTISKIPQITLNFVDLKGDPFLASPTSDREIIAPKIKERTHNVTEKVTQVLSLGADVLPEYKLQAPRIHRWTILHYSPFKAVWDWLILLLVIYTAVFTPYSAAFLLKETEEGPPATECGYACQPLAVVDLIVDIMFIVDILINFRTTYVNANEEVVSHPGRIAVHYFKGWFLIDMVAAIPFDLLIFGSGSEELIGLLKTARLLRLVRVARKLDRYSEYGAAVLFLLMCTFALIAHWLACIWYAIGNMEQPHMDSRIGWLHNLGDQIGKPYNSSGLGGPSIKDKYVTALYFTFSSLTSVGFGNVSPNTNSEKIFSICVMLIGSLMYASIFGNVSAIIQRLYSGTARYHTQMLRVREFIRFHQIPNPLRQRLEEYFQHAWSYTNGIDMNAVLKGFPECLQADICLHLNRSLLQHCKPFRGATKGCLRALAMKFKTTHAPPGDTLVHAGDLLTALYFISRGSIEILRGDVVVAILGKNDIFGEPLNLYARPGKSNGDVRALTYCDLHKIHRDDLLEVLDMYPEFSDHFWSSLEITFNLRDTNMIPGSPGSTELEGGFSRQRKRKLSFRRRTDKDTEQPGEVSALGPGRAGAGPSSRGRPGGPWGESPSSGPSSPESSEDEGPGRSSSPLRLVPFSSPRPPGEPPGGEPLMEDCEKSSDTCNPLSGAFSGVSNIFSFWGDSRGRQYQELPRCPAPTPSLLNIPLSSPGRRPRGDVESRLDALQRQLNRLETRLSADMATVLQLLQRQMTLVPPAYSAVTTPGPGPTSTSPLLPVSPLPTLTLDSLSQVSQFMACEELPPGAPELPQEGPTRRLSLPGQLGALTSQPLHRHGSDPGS

Row | Compound | hERG current change (%, negative = inhibition) at 10uM [%]
1 | O=C(c1ccccn1)N1CCCC(N2CCN(c3ccccc3)CC2)C1 (stereo not drawn) | 4.01
2 | CC(C)(C)N/N=C/c1cc(Cl)cc([N+](=O)[O-])c1O.Cl | -10.9
3 | CC1CN(S(=O)(=O)c2cccc(C(=O)OCCOc3ccccc3)c2)CC(C)O1 (stereo not drawn) | -1.04
4 | CCC(NC(=O)NNC(N)=S)(C(F)(F)F)C(F)(F)F | 4.3
5 | COC1CCCN(Cc2c(C(=O)N3CCc4ccccc4C3)nc3ccc(Cl)cn23)C1 (stereo not drawn) | -35.9
6 | O=C1NC2(C=Cc3c(ccc4ccccc34)O2)Oc2ccccc21 (stereo not drawn) | 16.4
7 | CC1Cc2ccccc2N1C(=O)CN1CCN(Cc2ccccc2)CC1.O=C(O)C(=O)O (stereo not drawn) | -11.8
8 | Cc1cc(C)n(CC(=O)c2cccc([N+](=O)[O-])c2)n1 | 15.3
9 | CCC1CCCCN1C(=O)c1ccccc1OC1CCN(S(C)(=O)=O)CC1 (stereo not drawn) | 21.2
10 | COc1ccc(C(=O)Nc2ccccc2C(=O)N2CCOCC2)cc1 | 15.2
11 | CC1(C)CC(=O)N(c2cccc(Cl)c2)C(=O)C1 | 10.4
12 | OCC(CBr)(CBr)CBr | 16.5
13 | O=C(Nc1ccc2nc3n(c(=O)c2c1)CCCCC3)C(=O)N1CCN(c2ccccc2F)CC1 | 14.2
14 | COc1ccc(-c2cc(CNS(=O)(=O)c3ccc(F)cc3)on2)cc1 | 16.7
15 | Cc1ccc(CNC(=O)COC(=O)c2ccc(Cl)c(N)c2)cc1 | -3.37
16 | COc1ccc(CCNC(=O)c2ccccc2)cc1 | 5.73
17 | CCOc1ccc(N2CC(NS(=O)(=O)c3cccs3)CC2=O)cc1 (stereo not drawn) | 4.66
18 | CCOc1ccc(Nc2nc(Cc3nnc(SCC(=O)N(CC)CC)n3C)cs2)cc1 | -23.1
19 | Cc1cc(NC(=O)c2cccc(Br)c2)n[nH]1 | 4.84
20 | Cc1nc2ccc(NC(=O)c3ccc4ccccc4n3)cc2s1 | 14
21 | O=C(O)c1ccccc1S(=O)(=O)Cc1ccccc1 | -0.597
22 | Nc1nc(SCC(=O)Nc2cc(C(F)(F)F)ccc2Cl)[nH]c(=O)c1NC(=O)c1ccco1 | 22.5
23 | COc1ccc(NC(=O)C2(c3ccc(NC(=O)c4ccc(OC(C)=O)cc4)cc3)CCCC2)cc1 | 11.1

Row | Compound | hERG current change (%, negative = inhibition) at 10uM [%]
24 | O=C(CSc1ccc(-c2ccco2)nn1)NC1CCCCC1 | -20.3
25 | COc1ccc(CCNC(=O)CCS(=O)(=O)c2ccc(Br)cc2)cc1OC | -17.1
26 | C=CCN1C(=O)/C(=C/c2ccc3c(c2)CCCN3CCC)C(=O)NC1=S | -0.0356
27 | CC(CNC(=O)c1ccc(N)cc1)NC(=O)c1ccc(N)cc1 (stereo not drawn) | 9.03
28 | C=CCn1sc(=N)c(C#N)c1N | -19.8
29 | O=C(O)C1=C[C@H](c2ccc(F)cc2)C[C@H](OCc2ccc(CO)cc2)O1 | 4.49
30 | O=C1C2C3C=CC(CC3)C2C(=O)N1c1cccc(Br)c1 (stereo not drawn) | 22.1
31 | COc1ccc(NS(=O)(=O)c2cc(NC(=O)/C=C/c3cc(OC)c(OC)c(OC)c3)ccc2N2CCCCC2)cc1 | 1.67
32 | Cc1cnc(CNC(=O)C2CCC(=O)N(CCc3cccc(F)c3)C2)[nH]1 (stereo not drawn) | 10.6
33 | CCN(CC)C(=O)C(Sc1nnnn1-c1ccc(O)cc1)c1ccccc1 (stereo not drawn) | -1.03
34 | COc1ccc(C)cc1NC(=O)C(Sc1nnc2ccccn12)c1ccccc1 (stereo not drawn) | -67.7
35 | CN(C(=O)NC1CC(=O)N(c2ccc3c(c2)OCCO3)C1)c1ccccc1 (stereo not drawn) | -5.44
36 | CCCCn1c(N)c(N(CC(C)C)C(=O)c2cc(-c3ccncc3)nc3ccccc23)c(=O)[nH]c1=O | 6.7
37 | Cc1cc(C(=O)OCC(=O)Nc2sc3c(c2C#N)CCC(C)C3)c2ccccc2n1 (stereo not drawn) | 5.2
38 | CCOC(=O)c1cnc(-n2nc(C)cc2C)nc1NC | -9.96
39 | CCOc1ccccc1NC(=O)Cn1nnc(C(=O)NCc2cccs2)c1N | 13.4
40 | N#Cc1c(Nc2ccccc2)sc(C(=O)c2ccc(F)cc2)c1N | -2.12
41 | O=C(Cn1ncc(N2CCOCC2)c(Cl)c1=O)c1ccc(Cl)cc1 | -32.8
42 | COc1ccccc1NC(=O)Cn1nc(-c2ccc3c(c2)OCCO3)ccc1=O | 0.512
43 | C=CCn1c(=N)n(CC(O)COc2ccccc2OC)c2ccccc21.Cl (stereo not drawn) | -67
44 | Cc1cc(OCCN2CCOCC2)ccc1[N+](=O)[O-].O=C(O)C(=O)O | 5.11
45 | O=C(CCCSc1ccccc1)Nc1ccc(Cl)c(S(=O)(=O)N2CCOCC2)c1 | -5.89
